Assay results as given in PubChem BioAssay AID686979 (National Center for Advancing Translational Sciences (NCATS), 2013).
Where “and” joins values, the source holds several entries; their conditions need not be identical. Equal entries are not always repeated. Hit rate of the full screen: of about 420,000 compounds, about 50,000 (12%) were called active. The shares of active, inactive and inconclusive entries below differ from those in the screen. Calls come from the whole dose curve; as a rule, active = well fitted inhibition curve with a large enough effect; inconclusive = small, poorly fitted or top-dose-only effect; inactive = flat fitted curve, though single readings scatter. A potency beside an inconclusive call is a rough fit, not a confirmed value.

Experiment: qHTS for Inhibitors of human tyrosyl-DNA phosphodiesterase 1 (TDP1): qHTS in cells in presence of CPT; note: nearly all actives have a fitted effect of over 55% in size
Conditions: chicken DT40 Tdp1-/-;hTDP1 cells + 20 nM CPT, ATP luminescence, 48 h; activity change, negative = growth inhibition: at 46.2 µM (top of the series) unless noted
Method in brief: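 Cell growth measured by CellTiter-Glo luminescence after a minimum 48 h, 37 C compound exposure with 20 nM CPT in Tdp1-knockout DT40 cells stably expressing hTDP1, seeded 400/well; qHTS titration format.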
% is set by controls: 0 for no effect and ±100 for the full control effect; potency is the fitted concentration of half-maximal effect; tags give direction and shape of the fitted curve.

| SMILES | Potency | activity change, negative = growth inhibition |
| --- | --- | --- |
| O=C(Nc1nc2ccc(F)cc2s1)C1=NN(c2ccccc2)C(=O)CC1 | inactive | – |
| CN(C)c1cc[n+](CC(=O)Nc2cccc([N+](=O)[O-])c2)cc1 | inconclusive: 29.1 µM [inhibitor, single point] | – |
| Cc1cccc(C(=O)NCC(=O)NCCCSc2ccccc2)c1 | inconclusive: 23.1 µM [inhibitor, single point] | – |
| COc1cc(C)c(C2NC(=O)c3ccccc3N2)cc1C (stereo not given) | active: 2.59 µM | – |
| CCOC(=O)/C=C1\CN(Cc2ccc(OC)cc2)S(=O)(=O)c2ccc(C(F)(F)F)cc21 | active: 12.6 µM | – |
| CC(=O)Nc1cccc(-n2cc3c(c2-c2ccccc2Cl)c(=O)n(C)c(=O)n3C)c1 | inconclusive: 10.3 µM [inhibitor, partial curve] | – |
| CN(C)Cc1ccccc1-c1nc(NC2CCNCC2)c2ccccc2n1 | active: 0.366 µM | – |
| COc1ccc(N2CCN(S(=O)(=O)c3ccc(C(=O)NC4CCCC4)cc3)CC2)cc1 | inconclusive: 16.4 µM [inhibitor, partial curve, poor fit] | – |
| CC(C)OC(=O)Nc1ccc(Oc2c(F)c(F)c(F)c(F)c2F)cc1 | inconclusive: 29.1 µM [inhibitor, single point] | – |
| CCC(C)(C)n1nnnc1CN(Cc1ccco1)Cc1cc2cc3c(cc2[nH]c1=O)OCO3 | active: 20.6 µM | – |
| CNC[C@H](CC1CCCCC1)NC[C@H](CO)NCC1(c2ccccc2)CC1 | inconclusive: 16.4 µM [inhibitor, single point] | – |
| CC(Nc1c([N+](=O)[O-])c(=O)oc2ccccc12)C(Cl)c1ccccc1 (stereo not given) | inconclusive: 16.4 µM [inhibitor, single point] | – |
| CCOC(=O)c1nc(Nc2ccccc2CC)c2ccccc2n1 | inconclusive: 29.1 µM [inhibitor, single point] | – |
| CC1S/C(=N/N=C/c2ccco2)N(Cc2ccccc2)C1=O (stereo not given) | inconclusive: 29.1 µM [inhibitor, single point] | – |
| O=C(CCn1ccc2cc(S(=O)(=O)N3CCCC3)ccc21)NCc1ccccc1Br | inconclusive: 16.4 µM [inhibitor, single point] | – |
| FC(F)C(F)(F)Oc1cccc(Nc2nccn3c(-c4ccc5ccccc5c4)cnc23)c1 | inconclusive: 29.1 µM [inhibitor, single point] | – |
| c1ccc(Cc2nnc3n2N=C(c2ccccc2)CS3)cc1 | inactive | – |
| N=c1n(CCN2CCCCC2)c2ccccc2n1CC(=O)c1cccs1 | active: 18.4 µM | – |
| O=c1[nH]c2c(oc3ccccc32)c(=O)n1Cc1ccccc1 | inactive | – |
| CCCCN(C(=O)CC1CCCC1)c1c(N)n(CCCC)c(=O)[nH]c1=O | inactive | – |
| CN(CC(=O)Nc1ccc(F)c(F)c1F)C(=O)CN1C(=O)NC2(CCCC2)C1=O | inconclusive: 25.9 µM [inhibitor, single point] | – |
| COc1ccc(C(C)=O)cc1CC(=O)Nc1ccccc1-c1ccccc1 | inconclusive: 29.1 µM [inhibitor, single point] | – |
| CCOC(=O)CNc1nc(C(C)(C)C)nc2c1nnn2Cc1ccccc1 | inconclusive: 18.4 µM [inhibitor, single point] | – |
| Cc1c(NC(=O)c2ccc3c(c2)C(=O)N(Cc2ccco2)C3=O)cccc1C(=O)O | inactive | – |

| SMILES | Potency | activity change, negative = growth inhibition |
| --- | --- | --- |
| COc1ccc(CCN2CCCC(CN(C)Cc3cc(OC)ccc3OC)C2)cc1 (stereo not given) | inconclusive: 29.1 µM [inhibitor, single point] | – |
| CC(C)Oc1ccc(C(=O)Nc2c(C(=O)Nc3cccc(F)c3)oc3ccccc23)cc1 | inconclusive: 29.1 µM [inhibitor, single point] | – |
| CCCN(CCC)C(=O)Cn1c(=O)n(CCCCC(=O)NC2CCCC2)c(=O)c2ccccc21 | – | inconclusive: -31.1% [inhibitor] |
| COc1cccc(C(C(=O)NCc2ccccc2)N(C(=O)c2csnn2)C2CC2)c1 (stereo not given) | inconclusive: 0.651 µM [inhibitor, single point] | – |
| O=C(CN1C(=O)c2cccnc2Oc2ccc(Cl)cc21)Nc1cccc(C(F)(F)F)c1 | inconclusive: 23.1 µM [inhibitor, single point] | – |
| O=C(Nc1cccs1)Nc1c(F)cc(F)cc1Br | active: 7.31 µM | – |
| COc1ccc(C(=O)NC2c3ccccc3-c3ccccc32)cc1 | inconclusive: 9.2 µM [inhibitor, partial curve] | – |
| Cc1cc(S(=O)(=O)NCC(c2ccccc2)c2ccccc2)ccc1-n1cnnn1 | inconclusive: 29.1 µM [inhibitor, single point] | – |
| Cc1ccc(NCN2C(=O)c3ccccc3C2=O)c(C)c1 | inconclusive: 0.0164 µM [inhibitor, full curve, poor fit] | – |
| CC(=O)c1ccc(N2CCN(C(=O)c3nn(Cc4ccccc4)c(=O)c4ccccc34)CC2)cc1 | inconclusive: 23.1 µM [inhibitor, single point] | – |
| Cc1cc(-c2[nH]nc3c2C(c2ccsc2)C(C#N)=C(N)O3)c(C)s1 (stereo not given) | inconclusive: 0.517 µM [inhibitor, full curve, poor fit] | – |
| c1ccc2c(-c3nc4ccccc4[nH]3)cccc2c1 | active: 9.2 µM | – |
| CC(C)N=C1CC(C)(C)CC(=O)/C1=C(/O)CCCN1C(=O)c2ccccc2C1=O | inactive | – |
| CC(C)(C)N(Cc1ccccc1)C(=O)CN1C(=O)c2ccccc2C1=O | inactive | – |
| COc1cc(NC(=O)CSc2ccc(-c3ccccn3)nn2)cc(OC)c1 | inconclusive: 18.4 µM [inhibitor, single point] and inconclusive: 16.4 µM [inhibitor, single point] | – |
| CCOC(=O)/C(=C/c1ccc(OC(=O)c2ccncc2)cc1)C(C)=O | inconclusive: 25.9 µM [inhibitor, single point] | – |
| CCn1c(=O)c2c(nc(SCC(=O)NCC3CCCO3)n2C)n(C)c1=O (stereo not given) | – | inconclusive: -38.2% [inhibitor] |
| CCOC(=O)N1CCN(C(=O)c2ccc(CNS(=O)(=O)c3ccc(C)cc3)cc2)CC1 | inactive | – |
| O=C(Cc1ccc(-c2ccccc2)cc1)NCCS(=O)(=O)N1CCN(c2ccccc2)CC1 | inconclusive: 4.61 µM [inhibitor, full curve, poor fit] | – |
| O=C(CSc1nc(-c2ccc(F)cc2)[nH]c1-c1ccc(F)cc1)Nc1ccc2c(c1)OCO2 | active: 16.4 µM | – |
| CCCn1nc(C(=O)NNC(=O)CCOc2ccccc2OCC)c2ccccc2c1=O | inactive | – |
| CCC(=O)N1CCN(c2ccccc2NC(=O)Cc2ccccc2)CC1 | inconclusive: 29.1 µM [inhibitor, single point] | – |
| COc1ccc(N2CCN(CCNC(=O)c3ccc(NC(=O)C4CCCO4)cc3)CC2)cc1 (stereo not given) | inactive | – |
| CCOC(=O)c1ccc(NS(=O)(=O)N2CCCCCC2)cc1 | inconclusive: 18.4 µM [inhibitor, single point] | – |

| SMILES | Potency | activity change, negative = growth inhibition |
| --- | --- | --- |
| CCC1CCCCN1C(=O)CN1C(=O)c2ccccc2S1(=O)=O (stereo not given) | inactive | – |
| Cc1ccc(Cc2c(-c3ccco3)nc3c(C)cc(Br)cn23)cc1 | active: 3.66 µM | – |
| COc1ccccc1C(CC(=O)O)c1ccc2c(c1)OCO2 (stereo not given) | inactive | – |
| CC(=O)Nc1ccc(S(=O)(=O)N[C@@H](C)C(=O)OCC(=O)NC2CCCC2)cc1 | inactive | – |
| CCOc1ccccc1OCCOc1ccccc1OC(C)C | inconclusive: 25.9 µM [inhibitor, single point] | – |
| CCOC(=O)C1=C[C@@H](C(C)(C)C)N(S(=O)(=O)c2ccc(C)cc2)[C@H]1c1ccc(OC)cc1 | inconclusive: 20.6 µM [inhibitor, single point] | – |
| CC/C(=N\Nc1ccc([N+](=O)[O-])cc1[N+](=O)[O-])c1ccc(O)cc1 | inconclusive: 23.1 µM [inhibitor, single point] | – |
| COc1ccc2sc3c(=O)[nH]c4ccccc4c3c2c1 | active: 5.8 µM | – |
| CCCCn1c(N)c(N(CC(C)C)C(=O)COC(=O)Cc2cccc(OC)c2)c(=O)[nH]c1=O | inactive | – |
| CN1CN(C)c2ccc([N+](=O)[O-])c3cccc1c23 | inactive | – |
| Cc1ccc(/C=N/NC(=O)c2cccnc2)s1 | – | inconclusive: -36.6% [inhibitor] |
| FC(F)(F)c1ccc(NC(=S)NCc2ccccc2)cc1 | active: 14.6 µM | – |
| COc1cc(C(C)=O)ccc1OCC(O)CN1CCN(c2ccccn2)CC1 (stereo not given) | inconclusive: 23.1 µM [inhibitor, single point] | – |
| COC(=O)c1c(NC(=O)CC2SC(N)=NC2=O)sc(C)c1C (stereo not given) | inconclusive: 25.9 µM [inhibitor, partial curve] | – |
| CN(Cc1cnc2nc(N)nc(N)c2n1)c1ccc(C(=O)NC(CCC(=O)O)C(=O)O)c2ccccc12 (stereo not given) | active: 0.092 µM | – |
| Cc1ccc(Nc2c(-c3ccccn3)nc3cc(C)ccn23)cc1 | active: 4.61 µM | – |
| Cc1ccn2c(=O)cc(COc3cccc(NC(=O)Nc4cccc(Cl)c4C)c3)nc2c1 | inconclusive: 23.1 µM [inhibitor, single point] | – |
| Oc1cccc(C=Nc2cccc3ccccc23)c1O | inconclusive: 23.1 µM [inhibitor, single point] | – |
| COc1ccccc1NC(=O)C1=C(C)Nc2nc3ccccc3n2C1c1cccc(OC)c1OC (stereo not given) | active: 16.4 µM | – |
| Cc1ccc(CNC(=O)c2ccc(CS(=O)Cc3cccc(Cl)c3)o2)cc1 (stereo not given) | inactive and inconclusive: 23.1 µM [inhibitor, single point] | – |
| COc1cccc(NC(=S)NC2CC3CCCC(C2)N3CC(C)C)c1 (stereo not given) | inconclusive: 29.1 µM [inhibitor, single point] | – |
| Cc1cccc(-c2ccc3[nH]c4c(c3c2)CCN2C[C@@H]([C@H](C)O)[C@@H](N(C)C(=O)Nc3ccc(F)cc3)C[C@@H]42)c1 | active: 16.4 µM | – |
